Among the data in PMC4686657 are binding values, retold here.

Chains of the proteins cited; added tags and fusions are not shown.
UniProt P60122: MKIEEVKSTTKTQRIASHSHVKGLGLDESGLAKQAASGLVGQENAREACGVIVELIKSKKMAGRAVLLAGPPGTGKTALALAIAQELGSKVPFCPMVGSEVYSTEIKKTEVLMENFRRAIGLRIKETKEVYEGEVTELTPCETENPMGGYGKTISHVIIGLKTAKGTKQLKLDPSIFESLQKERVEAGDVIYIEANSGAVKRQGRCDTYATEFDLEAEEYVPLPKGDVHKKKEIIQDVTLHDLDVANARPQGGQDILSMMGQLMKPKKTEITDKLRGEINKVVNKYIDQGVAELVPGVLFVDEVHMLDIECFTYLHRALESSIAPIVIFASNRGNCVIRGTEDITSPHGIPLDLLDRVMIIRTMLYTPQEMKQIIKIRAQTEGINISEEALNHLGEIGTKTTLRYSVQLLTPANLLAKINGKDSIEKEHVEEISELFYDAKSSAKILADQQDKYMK
UniProt Q9WTM5: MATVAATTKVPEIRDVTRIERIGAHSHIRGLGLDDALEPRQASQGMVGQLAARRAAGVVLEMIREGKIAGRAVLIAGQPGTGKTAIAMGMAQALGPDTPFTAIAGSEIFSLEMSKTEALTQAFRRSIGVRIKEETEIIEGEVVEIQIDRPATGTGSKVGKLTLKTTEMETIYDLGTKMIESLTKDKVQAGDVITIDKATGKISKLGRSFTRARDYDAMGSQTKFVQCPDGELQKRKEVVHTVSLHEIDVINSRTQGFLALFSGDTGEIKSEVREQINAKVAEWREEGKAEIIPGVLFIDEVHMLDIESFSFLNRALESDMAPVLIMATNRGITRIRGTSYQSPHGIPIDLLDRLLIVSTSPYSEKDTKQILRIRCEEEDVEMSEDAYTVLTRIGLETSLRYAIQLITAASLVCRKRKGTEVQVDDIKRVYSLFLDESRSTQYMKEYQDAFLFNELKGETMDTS
UniProt Q61501: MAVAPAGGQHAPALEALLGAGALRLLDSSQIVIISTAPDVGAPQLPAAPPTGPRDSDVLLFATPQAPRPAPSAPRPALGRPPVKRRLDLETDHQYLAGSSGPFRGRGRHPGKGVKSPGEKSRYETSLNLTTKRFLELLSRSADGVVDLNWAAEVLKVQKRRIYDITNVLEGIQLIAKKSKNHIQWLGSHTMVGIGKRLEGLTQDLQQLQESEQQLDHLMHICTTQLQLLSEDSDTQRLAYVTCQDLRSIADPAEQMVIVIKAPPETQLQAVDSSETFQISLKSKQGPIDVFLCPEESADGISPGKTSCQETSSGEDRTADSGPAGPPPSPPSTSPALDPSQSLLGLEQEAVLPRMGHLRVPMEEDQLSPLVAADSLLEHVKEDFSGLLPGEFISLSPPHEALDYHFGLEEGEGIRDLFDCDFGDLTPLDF
UniProt O35261: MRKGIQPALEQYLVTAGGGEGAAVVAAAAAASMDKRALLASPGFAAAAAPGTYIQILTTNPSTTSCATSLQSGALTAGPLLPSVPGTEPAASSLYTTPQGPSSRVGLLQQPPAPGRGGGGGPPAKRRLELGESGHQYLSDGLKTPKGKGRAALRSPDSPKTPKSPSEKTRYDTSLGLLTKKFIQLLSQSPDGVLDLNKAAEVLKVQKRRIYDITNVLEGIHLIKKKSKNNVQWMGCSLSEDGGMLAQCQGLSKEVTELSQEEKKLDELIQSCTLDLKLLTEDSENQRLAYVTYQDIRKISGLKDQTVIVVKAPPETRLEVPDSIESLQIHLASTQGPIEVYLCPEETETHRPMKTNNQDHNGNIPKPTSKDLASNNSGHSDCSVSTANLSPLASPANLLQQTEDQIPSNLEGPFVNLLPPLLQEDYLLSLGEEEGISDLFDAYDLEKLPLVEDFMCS
UniProt Q01094: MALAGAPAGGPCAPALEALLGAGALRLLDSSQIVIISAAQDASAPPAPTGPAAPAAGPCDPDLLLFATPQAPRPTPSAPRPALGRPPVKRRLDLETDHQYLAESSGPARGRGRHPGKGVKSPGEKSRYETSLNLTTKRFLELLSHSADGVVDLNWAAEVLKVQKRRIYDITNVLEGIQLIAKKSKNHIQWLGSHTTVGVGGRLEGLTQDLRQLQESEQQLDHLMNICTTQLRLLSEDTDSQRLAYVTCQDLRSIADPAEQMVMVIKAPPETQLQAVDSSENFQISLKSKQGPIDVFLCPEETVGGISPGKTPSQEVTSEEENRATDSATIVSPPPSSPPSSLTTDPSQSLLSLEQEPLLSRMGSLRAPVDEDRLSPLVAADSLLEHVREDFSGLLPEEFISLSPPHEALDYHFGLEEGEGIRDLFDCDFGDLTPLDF
UniProt P56931: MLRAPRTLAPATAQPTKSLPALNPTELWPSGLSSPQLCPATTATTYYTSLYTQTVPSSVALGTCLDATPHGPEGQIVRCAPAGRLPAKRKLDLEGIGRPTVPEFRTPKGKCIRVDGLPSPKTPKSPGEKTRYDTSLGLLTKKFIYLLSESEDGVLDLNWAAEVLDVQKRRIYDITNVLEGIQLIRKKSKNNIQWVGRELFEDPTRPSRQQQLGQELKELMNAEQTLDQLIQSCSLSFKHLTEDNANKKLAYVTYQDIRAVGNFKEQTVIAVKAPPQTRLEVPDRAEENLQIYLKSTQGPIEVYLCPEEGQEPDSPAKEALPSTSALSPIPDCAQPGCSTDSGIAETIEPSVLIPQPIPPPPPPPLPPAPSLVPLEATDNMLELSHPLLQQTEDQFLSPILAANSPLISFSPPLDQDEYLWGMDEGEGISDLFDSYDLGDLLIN
UniProt P0C0S6: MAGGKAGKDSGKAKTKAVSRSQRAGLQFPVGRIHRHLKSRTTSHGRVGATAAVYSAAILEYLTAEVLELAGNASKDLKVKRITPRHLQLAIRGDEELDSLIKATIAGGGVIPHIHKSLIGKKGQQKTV

Assay [1] addresses Pontin (mouse (endogenous in TKO HCC cells)) (UniProt P60122). Put plainly: co-IP; IP and reverse-IP of endogenous proteins (E2f1, E2f3, Reptin, Pontin; IgG or HA as control) from TKO HCC cell lysates, immunoblotting. In general terms: Immunoblotting shows a protein as a band on a membrane.
The target in assay [2] is Reptin (mouse (endogenous in TKO HCC cells)) (UniProt Q9WTM5). Described as above.
For assay [3], the target named is E2f1 (mouse (endogenous in TKO HCC cells)) (UniProt Q61501). Nature of the assay: co-IP; IP for HA, E2f1 and E2f3 in primary TKO HCC liver extracts; Reptin and Pontin detected by immunoblotting.
Assay [4] shares this target. Nature of the assay: co-IP; IP and reverse-IP of endogenous proteins (E2f1, E2f3, Reptin, Pontin; IgG or HA as control) from TKO HCC cell lysates, immunoblotting.
The target in assay [5] is E2f3 (mouse (endogenous in TKO HCC cells)) (UniProt O35261). The description is as above.
In assay [6] the target is Reptin (mouse (endogenous in TKO HCC cells)) (UniProt Q9WTM5). Nature of the assay: co-sedimentation; 100 μg nuclear extract of TKO HCC cells on a 20% Nycodenz gradient, ultracentrifugation, twenty fractions of 250 μl, immunoblotting.
A further assay deals with GST-E2f1 (UniProt Q01094). Put plainly: pull-down; GST-E2f1 fusion proteins bound to GST-sepharose beads incubated with 1 ml TKO cell lysate in TWB buffer for 1 h; washed five times with NENTM buffer; immunoblotting of endogenous protein; only the target purified.
Assay [7] deals with E2f1 (mouse (endogenous in TKO HCC cells)) (UniProt Q61501). Put plainly: condition: only liver 4 days after Tamoxifen treatment (acute Rb family inactivation); co-IP; IP for HA, E2f1 and E2f3 in primary liver extracts of Rosa26-CreER^T2 TKO mice 4 days after Tamoxifen treatment (acute Rb family loss); Reptin and Pontin detected by immunoblotting.
For assay [8] the target is unchanged. Nature of the assay: co-IP; endogenous E2f1 IP (antibody C-20) from TKO HCC cells, the pair challenged with increasing amounts of GST-E2f1-1-121; Reptin detected by immunoblotting.

No constants are given. Whether binding was seen depends on the method and setting. Binding seen in cells or lysates may run through a third protein. Some entries that bind do so weakly or less than the wild type.

As for E2f2 (from UniProt P56931 1-443), the binding result in assay [1] and in [2] was “no binding” in each case.
Turning to H2a.z (from UniProt P0C0S6 1-128), the binding result in assay [2] is on record as “binds”.
Pontin (from UniProt P60122 1-456): the binding result is “binds” in assay [3]; “binds” in assay [4]; “no binding” in [5]; “binds” in assay [2]; “binds” in assay [6]; “no binding” with GST-E2f1. Moreover, in assay [7], the binding result is listed as “no binding”.
Consider Reptin (from UniProt Q9WTM5 1-463), for which the binding entry is “binds” in [3]; “binds” in [4]; “no binding” in assay [5]; “binds” in assay [8]; “binds” with GST-E2f1; “no binding” in assay [7].
